The DeepSol protein solubility set

Assay: soluble on expression in E. coli; label from the status in PepcDB or PDB records

Sequence	soluble on expression in E. coli
GSTYHLDVVSAEQQMFSGLVEKIQVTGSEGELGIYPGHAPLLTAIKPGMIRIVKQHGHEEFIYLSGGILEVQPGNVTVLADTAIRGQDLDEARAMEAKRKAEEHISSSHGDVDYAQASAELAKAIAQLRVIELTKKAM	soluble
MKLIVGMTGATGAPLGVALLQALREMPNVETHLVMSKWAKTTIELETPYSARDVAALADFSHNPADQAATISSGSFRTDGMIVIPCSMKTLAGIRAGYADGLVGRAADVVLKEGRKLVLVPREMPLSTIHLENMLALSRMGVAMVPPMPAFYNHPETVDDIVHHVVARVLDQFGLEHPYARRWQGLPQARNFSQENE	soluble
MPINKLRKRLGDLLVEEGIVSEAQLEQALNAQKNTGRRLGDTLISLGFLSETQLLNFLAQQLSLPVIDLSRAHVDIDAVPLLPEVHARRLRALVIGRSGDTLRIAMSDPADLFAQEALLNQLPDYGFEFVIAPEKQLVDGFDRYYRRTKEIVSFAEQLHAEHKTNDSFDFEITDSDSDEVTVVKLINSLFEDAIQVGASDIHIEPDANVLRLRQRIDGVLHETLLHEVNIASALVLRLKLMANLDISEKRLPQDGRFNIRVKGQSVDIRMSTMPIQHGESVVMRLLNQSAGVRKLEESGIPPHLLLRLRHQLKRPHGMILVTGPTGSGKTTTLYGALNELNTSGKKIITAEDPVEYRISRINQVQVNPKINLDFSTLLRTFLRQDPDIILVGEMRDQETVEIGLRAALTGHLVLSTLHTNDAVDSALRLIDMGAPGYLVASAVRAVVAQRLVRKVCPDCSGHDEVDEARRQWLVTRFPNQAAAKFTRGRGCQNCNLTGYRGRIGVFEMLELDQPMMDCLRANDAVAFSKAARSNTDYKPLLASAMELALQGIVSLDEVMSLGEGDSSGLVEPIYL	not soluble
MRGSHHHHHHTDPALRAMENYKHTTVLLDEAVNGLNIRPDGIYIDGTFGRGGHSRLILSQLGEEGRLLAIDRDPQAIAVAKTIDDPRFSIIHGPFSALGEYVAERDLIGKIDGILLDLGVSSPQLDDAERGFSFMRDGPLDMRMDPTRGQSAAEWLQTAEEADIAWVLKTYGEERFAKRIARAIVERNREQPMTRTKELAEVVAAATPVKDKFKHPATRTFQAVRIWVNSELEEIEQALKSSLNVLAPGGRLSIISFHSLEDRIVKRFMRENSRGPQVPAGLPMTEEQLKKLGGRQLRALGKLMPGEEEVAENPRARSSVLRIAERTNAGLCGR	soluble
